# Reference: the supplement of paper PMC3334620
# Over roughly 33,000 sequences, “E-score (-0.5 to 0.5)” has its median near -0.054; the highest 2% begin near 0.39. The list shows a part of the results.
# Biological target: Ylr278c (UniProt Q05854)
# Assay: PBM E-score (8-mer binding enrichment) (E-score (-0.5 to 0.5)); higher = stronger / more preferred TF binding; most listed sequences are background and not binding sites
# Details: protein concentration: 200 nM; construct: GST-DNA-binding domain
# Description: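 Universal 'all 10-mer' protein binding microarrays (Agilent AMADID 015681) probed with GST-tagged S. cerevisiae TFs (full-length or DBD) made by in vitro transcription/translation (PURExpress), about 100-200 nM. Bound TF was detected with fluorescent anti-GST. Each ungapped 8-mer (which stands for itself and its reverse complement) is scored by the PBM enrichment score (E-score), a modified Wilcoxon-Mann-Whitney statistic from -0.5 to +0.5, computed with the Universal PBM Analysis Suite. Scale: above 0.35 generally sequence-specific binding.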
row,Sequence,PBM E-score
1,ATCAGGTC,-0.107
2,AATAATCG,-0.0135
3,AGTGTCCC,0.0686
4,ATCTTCCA,-0.167
5,GCGACTAA,-0.0449
6,CGGTTGTC,0.123
7,GCCTGTAA,-0.147
8,ATATCTAC,-0.0303
9,AGCTCGAC,-0.155
10,CCCAGGCC,-0.141
11,ATTACCTA,0.0463
12,AGTTATAG,-0.215
13,ACGTTTGA,0.0559
14,GCCAGAAC,-0.0889
15,CTTGGCAC,-0.22
16,CGGGTAGC,0.0113
17,ATATAGCC,0.0283
18,CTTGGCCA,-0.181
19,AGCTTTAC,-0.146
20,AGGAAGAA,-0.122
21,GAAAGAAC,0.00616
22,ACGGGGAC,0.152
23,CGTTGACA,-0.25
24,GCCCAGCA,-0.00582
25,AGTGAGAG,-0.0943

row,Sequence,PBM E-score
1,CAGAGACG,-0.0283
2,AGATAACC,0.0637
3,ACTACCAA,-0.0721
4,ACCGCGGA,0.407
5,CCCACAGA,-0.299
6,GTGGTGGA,-0.048
7,ATCAGATA,-0.0877
8,CGGATAGA,0.25
9,AGACTAGG,-0.17
10,ATCTTAGG,-0.174
11,AACCTCGT,-0.0144
12,GGTACCTA,-0.24
13,CGATTAGA,0.043
14,CGACTGAA,0.0381
15,CTGTACTC,-0.173
16,ACCCCCCA,-0.245
17,CGCTCCGA,0.432
18,ACAATGGA,0.0428
19,ACGCTTCC,0.141
20,GAAAGATA,-0.0447
21,GGTGGCCA,-0.164
22,AATCCGAC,0.402
23,CGTACTAA,0.0171
24,AGTGGGCG,-0.00249
25,CAAGCGTG,-0.176

row,Sequence,PBM E-score
1,TCTATACA,-0.202
2,GACTAAAC,-0.0103
3,CAAAACCG,0.148
4,GATCGAGA,-0.0882
5,AGACAGAG,-0.172
6,ATGCAGCC,-0.131
7,CGGAATGA,0.33
8,AAGCGAGG,-0.0923
9,CGACACAC,0.0181
10,ATACGGTC,0.0287
11,ATTGCGCA,0.143
12,ATTGGTTC,0.0775
13,GGACTCGA,0.0117
14,TACCACGA,-0.214
15,CGAAGCTC,0.0309
16,GGCTTCTA,-0.158
17,ACACCACC,-0.00359
18,GCCATTCC,0.177
19,ATTCTGTG,0.054
20,GACCGCTA,0.0583
21,TAACATAA,-0.0831
22,CCTTCATC,-0.0422
23,GGTATAAA,0.121
24,GAATGCTA,-0.114
25,CGGCAACC,0.257

row,Sequence,PBM E-score
1,AGGGAAAT,-0.104
2,ACTACTTC,-0.0303
3,CAGTCTAC,-0.108
4,GATATATA,0.153
5,CGCTATGC,0.137
6,TGCTCTAA,-0.211
7,AGGCGCAG,-0.25
8,ATGGCCGG,0.345
9,CCCGCTCA,0.131
10,AGAAGGAG,-0.18
11,GAGTGATA,-0.00358
12,AACGCCAA,-0.0358
13,GACTGGCA,-0.103
14,AGCAATCG,-0.0973
15,CAATTGGG,-0.147
16,AGGATTGA,-0.0189
17,CTGGGCGC,-0.168
18,ACCCAATC,0.00034
19,AGAACCAA,-0.0592
20,CTCTCTGA,-0.235
21,CTAACCGA,-0.0407
22,CATTGTTA,-0.179
23,CCTTCGCG,0.115
24,CGCATGGA,-0.184
25,CATTATGG,-0.00686

row,Sequence,PBM E-score
1,ATCTTGTC,0.0131
2,CATTCCAG,-0.295
3,GGAACCCA,0.0655
4,AGTGTGGC,0.0259
5,ATGTGGCC,-0.0779
6,CACGTACG,-0.152
7,AGACGGTC,-0.129
8,TGAGAGAA,-0.101
9,CCCTCTAA,-0.185
10,CAACTCGC,-0.0405
11,ATAGCGAA,-0.144
12,GTCACAGA,-0.154
13,CGTCCGTA,0.189
14,ACCTAGAT,-0.154
15,CTTGTCCA,-0.128
16,CAACAATC,-0.105
17,CTTATTTA,-0.201
18,TAGGCCGA,0.254
19,CAACATGC,-0.0851
20,CTGTTTTA,0.0217
21,CGAGTGGA,-0.00774
22,AAAAGGTC,-0.112
23,GCACCGGA,0.429
24,CCAATACC,0.192
25,ATCCAAAC,-0.0775

row,Sequence,PBM E-score
1,CGGCGCGC,0.3
2,AACCAGCC,0.0408
3,AGATTCAC,-0.154
4,CAAAAAAA,0.0916
5,CATCAGCG,0.0779
6,TATATGGA,-0.107
7,ACGTGTTC,-0.0185
8,TACGCTAA,-0.0975
9,AGTTCCAC,-0.0892
10,AACCCCTC,-0.154
11,CCGTAGAC,0.148
12,ACCTTCCT,-0.24
13,CAATAACG,0.0174
14,CCAAGTGG,-0.187
15,TATATTCA,0.0247
16,GTATTGCA,-0.0786
17,CCCGATAA,0.193
18,TCTGTGAA,-0.0514
19,CAGTTATA,0.0111
20,TAGTACCA,-0.0159
21,CGCTCGGA,0.408
22,CTAGTCGC,-0.175
23,CAGGAACA,-0.157
24,CTAGACAA,-0.027
25,AGGGGGGC,-0.224

row,Sequence,PBM E-score
1,GAAGCGGC,0.125
2,AACTAGCC,-0.218
3,GACGTGAA,-0.171
4,ACAGCAAG,-0.139
5,ACGGCCCC,-0.034
6,TCCGTCAA,0.352
7,ATAACTTG,-0.14
8,ATTTACAA,-0.16
9,AATTTCAG,-0.275
10,AATAACCG,0.178
11,CCTTGCCC,0.0607
12,AGCCAAGG,-0.211
13,AAAACTTA,-0.0467
14,TCACAGGA,-0.15
15,CCATCTTC,-0.00557
16,TACATATA,0.00744
17,AGACTAGA,-0.22
18,TGTTGTAA,-0.0583
19,GGTCCGAA,0.439
20,ACACCAAC,-0.126
21,GCGGAACC,0.254
22,ACGCTACA,-0.159
